Assay results reported in the supplement of paper PMC10126150.
Values marked as one replicate rest on one cluster of the flow cell; about a third of the high ones do not repeat.

System: ATP
Assay: switch fluorescence ratio, 500 uM ATP over buffer (Cy3 cluster intensity, sum of 5 cycles each) (fold (ratio)); higher = stronger signal-on switching upon ATP binding; sequences stand for … in TCGTCGGCAGCGTCAGATGTGTATAAGAGACAGTTTTTTTTTTTTTTTTTTTTTTTTT…TC
Conditions: aptamer strand: ATP DNA aptamer (quencher-CACCTGGGGGAGTATTGCGGAGGAAGG + anchor), 100 nM annealed; ATP concentration: 500 uM; one replicate
Outline: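 Imaging in selection buffer was followed by imaging after 15 min with 500 uM ATP at 22 °C, for Cy3-labelled switching-strand clusters annealed to 100 nM quencher-labelled ATP aptamer on a modified Illumina MiSeq flow-cell. Five of these buffer/ATP cycles ran, separated by NaOH stripping and re-annealing. The fluorescence ratio per cluster is summed target-cycle over summed buffer-cycle Cy3 intensity, averaged per switch-domain sequence; clusters outside 100-1000 RFU were removed.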
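Also: ATP exposure 15 min at 22 °C before imaging.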

Row | Sequence | switch fluorescence ratio
1 | TGGGTATGCA | 0.976
2 | TATTGTGCGC | 0.984
3 | AACGGGCTCT | 1
4 | TAACATTAAC | 1.01
5 | CATGGTGCTC | 1.04
6 | GCCCATCGGA | 0.987
7 | GTTCTACTCA | 0.991
8 | TAATCTGACT | 1.07
9 | GTTAGGTCTT | 0.958
10 | CGTGCAGACA | 1
11 | TCCTTAAGCC | 1.7
12 | ACCTGGTATG | 1.04
13 | GGGTCATGG | 1.03
14 | GTAAAGATCT | 0.991
15 | GCTGAATCTC | 0.983
16 | CAGGGTAGAC | 1
17 | CACTCGTTTA | 0.976
18 | AAGTTAAGTG | 0.977
19 | GCTTGGTTCT | 1.01
20 | AACTTGATGT | 0.999
21 | ACGTATCACC | 1.2
22 | TGGTTAAAGC | 0.976
23 | GAGCTAACTT | 1.03
24 | GACCTTGGCC | 1.06
25 | AAACTAATGG | 0.977

Row | Sequence | switch fluorescence ratio
26 | GGGTTCTAGC | 0.971
27 | TCGACGTGGC | 1.2
28 | TCCGCCACGC | 2
29 | CAGCAGGACA | 1.18
30 | AAATAGACCT | 1.64
31 | TGAATTACTT | 0.97
32 | ATCGTAAAGC | 1.06
33 | TCTAGCGAAA | 0.932
34 | CTGATTCGTT | 1.01
35 | TAAATGTAAT | 1.03
36 | GCTTGAATTG | 0.993
37 | TGCGGCAGAA | 0.974
38 | CATCTAGCGC | 1.04
39 | ACGAGATGCC | 1.03
40 | GGGGCATATC | 1.04
41 | TGCGGAAACC | 1.1
42 | GAGCCGGGGA | 1.07
43 | CGGAGGGTAT | 1
44 | TCGGTTAAG | 1.06
45 | AATAGAGCCT | 1.06
46 | CCATGCTGGT | 0.979
47 | GCAACTGATG | 0.98
48 | TTATTAGCT | 1.02
49 | GCCTCACTA | 0.986
50 | TTCCCAAAGA | 1.03

Row | Sequence | switch fluorescence ratio
51 | TTATCGGGTA | 1
52 | TGAAGTAAAT | 0.995
53 | TGGGCCCTAA | 1.01
54 | GTTGTGACAT | 1.02
55 | GAGGCGCTC | 1.03
56 | TTTAAGTCCG | 0.982
57 | TGCATCGACC | 1.45
58 | AGTCATGGGA | 0.943
59 | TGCAGAAAAC | 1.06
60 | GGGGCGTTCT | 1.08
61 | AGGTTGCGGA | 0.916
62 | GCCCGTGGGT | 1
63 | CACCTCTGCA | 4.22
64 | CGCCCCCCCT | 1.32
65 | CTAGTAGCT | 1.03
66 | TTTGAGCTTC | 0.974
67 | CAAGCTCAAG | 0.99
68 | CCGAAAGGCG | 1.13
69 | GGTAATACGA | 1.88
70 | CACCAACGAC | 1.29
71 | TACTTCCGTG | 1.92
72 | ACATACGGCG | 1.19
73 | GGTGGAAACA | 0.972
74 | CTGGCCTACG | 1.05
75 | ATGTAGGAGG | 1.02

Row | Sequence | switch fluorescence ratio
76 | GCAGGCTAGG | 0.977
77 | CGTCGACGTT | 1.04
78 | GGTTGGGTAC | 1.05
79 | CCGGTAGAAC | 1.25
80 | ACCTATTAAG | 1.02
81 | TGGGGGCAGA | 1
82 | ACTCACACTC | 1.38
83 | TGTTATATCG | 1.01
84 | GGGTAAATAC | 1.35
85 | GCTCGTTTGC | 1.04
86 | TCGAAGGCCA | 1.01
87 | TCTCGTTGGT | 0.971
88 | CAAGGTATGA | 0.956
89 | ACGCCAGGGC | 1.1
90 | CCCGTACGTG | 1.02
91 | ATTACATGCA | 1.02
92 | AGAACGTGTA | 0.95
93 | AGCTATACAT | 1.18
94 | GTGCTCTCGG | 1.02
95 | CAGCTCTGGT | 0.991
96 | GTGCGCGG | 0.966
97 | CAATGATCGG | 1.03
98 | CAAAGTGTTG | 1
99 | TTGATGAATG | 1
100 | ATTCAGAAAT | 0.961

Row | Sequence | switch fluorescence ratio
101 | AAAGACCCAT | 1.01
102 | GTCTGTACCG | 0.971
103 | AGCGGAAGCC | 0.985
104 | CGCTAATGGG | 1.09
105 | AGGTTGGT | 0.977
106 | GGATCCCACC | 1.12
107 | CGAAAGCCTT | 0.985
108 | AGGGTACTA | 1.06
109 | AAAGCCCATC | 0.975
110 | TCAATGCAAG | 1
111 | TTCTGAGGAC | 0.988
112 | CTTGGCTTCT | 1.01
113 | GAGTGGTGTC | 1.03
114 | GCTCCGTTTT | 1.25
115 | TCGGGGTACT | 1.09
116 | TGCGTACAT | 1
117 | ATCTCGCACC | 1.34
118 | CGTATGGGAC | 0.969
119 | GATAAGGGTT | 0.986
120 | ACACATACAT | 1.26
121 | CGGGGATATA | 0.943
122 | ACGTGAAGAT | 1.05
123 | CGCTGAATTC | 1.27
124 | AATTAGATTG | 1.01
125 | TATCATTGGA | 1.01

Row | Sequence | switch fluorescence ratio
126 | CCTAGACTGA | 1.01
127 | GGAATGGCCT | 1.07
128 | CGGCGTCAGT | 1.03
129 | GTTTCTAACT | 1.06
130 | GTTACCATGT | 0.987
131 | AAAGGTGAGA | 1.08
132 | CGTGGTGTGC | 1.01
133 | ATGTTATCGT | 1.02
134 | GCGTGAGTAT | 0.951
135 | GCCTTTGGAG | 0.984
136 | AGTGGGCGAG | 0.976
137 | CGGGTTAT | 1.02
138 | GAGACGGGGC | 1.11
139 | TGGGATAGAC | 1.01
140 | GGCTTAAGGA | 1.05
141 | GGCGTTAACC | 1.01
142 | TATCCCAGTG | 2.58
143 | ATGTGGCGGA | 1.05
144 | ATTTGAGCAA | 1.57
145 | GCGATTTCAT | 0.971
146 | GCTGGTCTAA | 0.997
147 | TTTCAATTTC | 1.05
148 | CTGTTAATC | 1.01
149 | GGCGCTACCA | 1
150 | ATGTATTGCT | 0.99

Row | Sequence | switch fluorescence ratio
151 | CAACTATCGT | 1.04
152 | GAATGGTGTC | 1.01
153 | CAAGCCTCAT | 1
154 | GCTTCCCATA | 1.03
155 | TGCTTCGGGT | 0.989
156 | AATCAAGAAA | 0.943
157 | TTATCACATC | 0.926
158 | TTTGTGTTGA | 1
159 | CGATGACTAC | 1.66
160 | TACGTGGGCT | 0.988
161 | GATATCCTAA | 1.03
162 | GGTGGTGGTC | 1.03
163 | ACTCGGGTTA | 1.01
164 | TCCCCCAATA | 1.06
165 | GCAGCAGAGG | 1.29
166 | TACCACTTCG | 1.07
167 | GCAGTCCATT | 0.984
168 | GTCTATGTTT | 1.01
169 | ATAAGGACTA | 1.04
170 | CAAGCATGTC | 1.04
171 | CCGAAAGCCC | 2.99
172 | AAACGTCTAT | 0.985
173 | ATCGTTTAGA | 1.01
174 | AAGTTGGTAC | 1.07
175 | TCATAGGGGG | 1.04

Row | Sequence | switch fluorescence ratio
176 | CGTGTGGAC | 1
177 | TATGTCGATT | 0.977
178 | CTTGTGTTAG | 0.993
179 | TGGCGTAGCG | 1.01
180 | AATGCGACCC | 1.04
181 | GGGCATTAGT | 1.03
182 | AGGGGTCGG | 1.04
183 | GCACAAGATT | 0.988
184 | ACTACTGTTA | 1.04
185 | CGTAGGGTTC | 1.02
186 | TTTCAAACAC | 1.05
187 | CGTAGATGCT | 1.03
188 | CGAGTGATAA | 1.24
189 | ACGAAGATCT | 1.04
190 | GCCGTTCCC | 0.972
191 | ATTCATCCTT | 0.979
192 | CCACTCCTGA | 0.997
193 | TTATCTAGAT | 0.941
194 | GGACTAGTCG | 0.955
195 | AGTTCAATCG | 1
196 | AAAGTACGGG | 1.21
197 | ACCTTGCCCT | 1.1
198 | CGTTGGCACC | 1.03
199 | CATCAATATA | 1.05
200 | GGAGACATTT | 1.02
